Experimental data published in PMC4336329 (PLoS ONE, 2015).
Among all 310,000 compounds or so, about 2,200 (0.71%) showed an effect of 50% or more. Effects have a minus sign here. Some of the results follow.

What follows are molecules tested against human ether-à-go-go-related gene (hERG) potassium channel (human, UniProt Q12809) (assay: primary screen, population patch clamp on CHO cells stably expressing hERG).
human ether-à-go-go-related gene (hERG) potassium channel, sequence (Q12809 whole entry, looked up): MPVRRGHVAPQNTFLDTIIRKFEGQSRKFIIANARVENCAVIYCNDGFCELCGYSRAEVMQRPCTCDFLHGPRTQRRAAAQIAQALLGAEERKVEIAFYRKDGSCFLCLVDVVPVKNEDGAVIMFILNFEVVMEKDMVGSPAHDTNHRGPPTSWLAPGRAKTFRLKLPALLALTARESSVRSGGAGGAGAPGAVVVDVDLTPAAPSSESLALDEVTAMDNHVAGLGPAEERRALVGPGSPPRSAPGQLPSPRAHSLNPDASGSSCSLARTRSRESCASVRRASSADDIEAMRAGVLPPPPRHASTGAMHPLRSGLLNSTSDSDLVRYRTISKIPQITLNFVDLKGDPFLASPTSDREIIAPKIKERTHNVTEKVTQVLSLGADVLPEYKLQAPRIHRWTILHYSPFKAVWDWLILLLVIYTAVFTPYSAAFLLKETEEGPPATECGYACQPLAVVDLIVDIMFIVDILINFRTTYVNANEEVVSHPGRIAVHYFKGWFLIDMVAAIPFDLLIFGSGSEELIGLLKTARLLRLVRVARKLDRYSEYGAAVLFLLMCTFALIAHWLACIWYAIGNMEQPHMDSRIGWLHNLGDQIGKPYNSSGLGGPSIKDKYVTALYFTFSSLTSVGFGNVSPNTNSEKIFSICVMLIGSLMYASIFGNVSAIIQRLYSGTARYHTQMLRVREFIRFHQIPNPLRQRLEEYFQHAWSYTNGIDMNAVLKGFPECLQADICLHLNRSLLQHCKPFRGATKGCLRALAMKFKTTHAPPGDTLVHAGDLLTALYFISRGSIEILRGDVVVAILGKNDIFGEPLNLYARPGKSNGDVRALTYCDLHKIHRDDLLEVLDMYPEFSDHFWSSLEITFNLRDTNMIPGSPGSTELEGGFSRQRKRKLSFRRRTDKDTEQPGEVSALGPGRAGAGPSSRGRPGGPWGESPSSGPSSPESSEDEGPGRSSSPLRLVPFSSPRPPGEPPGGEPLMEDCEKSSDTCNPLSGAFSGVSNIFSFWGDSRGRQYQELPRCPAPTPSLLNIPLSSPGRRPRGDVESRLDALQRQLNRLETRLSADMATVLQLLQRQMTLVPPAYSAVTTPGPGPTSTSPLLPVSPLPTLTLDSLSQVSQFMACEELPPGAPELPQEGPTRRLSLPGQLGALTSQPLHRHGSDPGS

In order of rising “hERG current change (%, negative = inhibition) at 1uM” value:
1. CCOC(=S)SCC(=O)Nc1nc(-c2ccc(Br)cc2)cs1  -92%
2. COc1ccc2[nH]c3c(=O)n(Cc4ccc(C(=O)NCC5CCCO5)cc4)c(=S)[nH]c3c2c1 (stereo not drawn)  -2.58%
3. Cc1cc(S(=O)(=O)NC2CCN(Cc3ccccc3)CC2)c(C)cc1Cl  -2.54%
4. CCOc1cc(N2CCOCC2)c(OCC)cc1NC(=O)COc1ncnc2ccc(Br)cc12  -0.097%
5. CCN(CC)S(=O)(=O)c1c(Br)cc(C)cc1Br  0.03%
6. CCOC(=O)CNC(=S)N(Cc1ccccc1)Cc1cccnc1  3.08%
7. Cc1ccc(C)c(C2(O)CC(C)N(C)CC2C)c1 (stereo not drawn)  3.84%
8. CN(C(=O)COC(=O)C1(C)CC1(Cl)Cl)c1c(N)n(Cc2ccccc2)c(=O)[nH]c1=O (stereo not drawn)  4.93%
9. Cc1ccc(CC2CC(=O)N(CC(=O)O)C2=O)cc1 (stereo not drawn)  6.06%
10. Cc1ccc(S(=O)(=O)Nc2c(NC3CCCCC3)c3ccccc3oc2=O)cc1C  7.18%
11. Cc1ccc(S(=O)(=O)n2nc(OC(=O)c3cccs3)cc2N)cc1  7.23%
12. CCc1ccc(OCC(=O)N/N=C/c2cc([N+](=O)[O-])ccc2N2CCOCC2)cc1  9.34%
13. CN1C(=O)C2CN(CCc3ccccc3)CNC2N(C)C1=O (stereo not drawn)  9.63%
14. CC1=NN(c2nc3ccccc3[nH]2)C(=O)C1Cc1ccccc1 (stereo not drawn)  10.2%
15. C=CCn1c2ccccc2c2nnc(SCN3C(=O)c4ccccc4C3=O)nc21  10.4%
16. COc1ccc(F)cc1S(=O)(=O)Nc1cc2c3c(c1)CC(=O)N3CCC2  11.6%
17. COc1cc(C2NC(=O)NC(C)=C2C(=O)Nc2cccc(C)c2C)cc(OC)c1OC (stereo not drawn)  14.4%
18. COc1ccccc1N=NC1=C(O)CC(C)(C)CC1=O  15%
19. O=C(Nn1cnnc1)c1ccccc1Cl  15.9%
20. O=C(CSc1n[nH]c(-c2ccncc2)n1)NCCc1ccccc1  17.7%
21. CNS(=O)(=O)c1cccc(C(=O)OCC(=O)c2c(N)n(C)c(=O)n(C)c2=O)c1  18.3%
22. O=C(CCN1C(=O)/C(=C/c2ccc(F)cc2)SC1=S)NCCc1ccc(O)cc1  18.6%
23. COc1cc(NC(=O)NNC(=O)c2cc3occc3n2C)cc(OC)c1OC  20.4%
24. Cc1cccc(C(=O)Nc2cccc(C(=O)N/N=C/c3ccccn3)c2)c1  20.4%
